Test results as given in patent US3943256A (priority 1974, dated 1976).

Details: distillation at 760 torr

## FCOCC(F)(F)C(F)(F)F [V, Fluoromehtyl 2,2,3,3,3-pentafluoropropyl ether]
  stability to heat on distillation: unstable to heat and decomposed with the formation of hydrogen fluoride
